Results taken from PubChem BioAssay AID686978 (National Center for Advancing Translational Sciences (NCATS), 2013).
Several values for one entry are separate records, joined by “and”; a condition that tells them apart may be missing. Equal values may be shown once. The whole screen tested about 420,000 compounds, of which about 64,000 (15%) were called active. Inconclusive results, whose numbers are uncertain, are shown with a selection of clear calls. Calls come from the whole dose curve; as a rule, active = well fitted inhibition curve with a large enough effect; inconclusive = small, poorly fitted or top-dose-only effect; inactive = flat fitted curve, though single readings scatter. A potency beside an inconclusive call is a rough fit, not a confirmed value.

Assay: qHTS for Inhibitors of human tyrosyl-DNA phosphodiesterase 1 (TDP1): qHTS in cells in absence of CPT; note: nearly all actives have a fitted effect of over 55% in size
Settings: DT40 Tdp1-/- hTDP1 cells, no CPT, ATP luminescence, 48 h; activity change, negative = growth inhibition: at 46.2 µM (top of the series) unless noted
How it was run: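 Stably hTDP1-transfected Tdp1-null chicken DT40 cells were treated with library compounds minus camptothecin and grown for at least 48 hr at 37 °C, after which cellular ATP was quantified by luminescence.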
% is set by controls: 0 for no effect and ±100 for the full control effect; potency is the fitted concentration of half-maximal effect; tags give direction and shape of the fitted curve.

SMILES	Potency	activity change, negative = growth inhibition
CCC(C)(C)C(=O)OC1CC(C)C=C2C=CC(C)C(CCC3CC(O)CC(=O)O3)C21 (centres undefined)	active: 20.6 µM	–
N#Cc1ccc(Oc2ccc(-c3nc4ccccc4nc3-c3ccccc3)cc2)cc1C#N	active: 18.4 µM	–
Cc1cc(Cl)cc(C)c1OCC(=O)NC1CCCCCC1	inconclusive: 29.1 µM [inhibitor, single point]	–
Cc1onc(-c2c(F)cccc2Cl)c1C(=O)Nc1nc2ccccc2[nH]1	inconclusive: 13 µM [inhibitor, partial curve]	–
Cc1ccc(Nc2nnc(SCC(=O)Nc3cccnc3Cl)s2)cc1C	inconclusive: 29.1 µM [inhibitor, single point]	–
CN(Cc1cc(=O)n2ccsc2n1)c1ccccc1	inconclusive: 25.9 µM [inhibitor, single point]	–
CC(=O)c1ccc(N2CCN(C(=O)c3nn(C)c4c3CS(=O)(=O)c3ccccc3-4)CC2)cc1	inconclusive: 18.4 µM [inhibitor, single point]	–
CNc1cc([N+](=O)[O-])ccc1N/C=C/C(=O)c1cccs1	–	inconclusive: -30.6% [inhibitor]
O=C(CN(Cc1ccccc1F)S(=O)(=O)c1ccc(Cl)cc1)NCCC1=CCCCC1	inconclusive: 16.4 µM [inhibitor, single point]	–
COc1cc(NC(C)=O)c2ncccc2c1Br	inconclusive: 29.1 µM [inhibitor, single point]	–
Cc1cc(C(=O)CSc2n[nH]c(N)n2)c(C)n1-c1cccc(F)c1	inconclusive: 16.4 µM [inhibitor, partial curve]	–
CN(Cc1ccccc1)C(=O)c1ccc(S(=O)(=O)N(C)c2ccccc2)cc1	inconclusive: 29.1 µM [inhibitor, single point]	–
CCn1c(-c2csc(C(C)C)c2)n[nH]c1=S	inconclusive: 29.1 µM [inhibitor, single point]	–
CCCCNC(=O)C1c2ccccc2OCC(=O)N1CCc1c[nH]c2ccccc12 (centres undefined)	inconclusive: 23.1 µM [inhibitor, single point]	–
COc1ccccc1NC(=O)c1ccccc1S(=O)(=O)c1ccccc1[N+](=O)[O-]	inconclusive: 29.1 µM [inhibitor, single point]	–
COc1ccc(NC(=O)CCN2CCN(CCO)CC2)c(OC)c1	inactive	–
CCNC(=O)C12CCC(C)(c3nc4cc(C)c(C)cc4nc31)C2(C)C (centres undefined)	inconclusive: 23.1 µM [inhibitor, single point]	–
COc1ccc(NC(=S)N/N=C/c2ccc(F)c(F)c2)cc1	inconclusive: 29.1 µM [inhibitor, single point]	–
CCN(CC)CCNc1nc(C(F)(F)F)nc2c1nnn2Cc1ccccc1	inconclusive: 23.1 µM [inhibitor, single point]	–
O=C(c1ccc(COc2c(F)c(F)c(F)c(F)c2F)o1)N1CCN(Cc2ccc3c(c2)OCO3)CC1	inconclusive: 20.6 µM [inhibitor, single point]	–
Cc1ccc(C(=O)Oc2cccc(NC(=O)c3ccco3)c2)cc1S(=O)(=O)N1CCC(C)CC1	inconclusive: 23.1 µM [inhibitor, single point]	–
COc1ccc(Nc2nnc(-c3ccc(O)cc3)c3ccccc23)cc1C(N)=O	inconclusive: 20.6 µM [inhibitor, single point]	–
COc1ccccc1Cn1cc(C(=O)c2ccc(Cl)cc2)c(=O)c2cc3c(cc21)OCCO3	inconclusive: 29.1 µM [inhibitor, single point]	–

SMILES	Potency	activity change, negative = growth inhibition
O=C(NC(=S)NCCN1CCOCC1)c1ccccc1Cl	inactive	–
COc1ccc(Oc2nc3c(c(=O)n(C)c(=O)n3C)n2Cc2ccccc2Cl)cc1	active: 13 µM	–
Cc1cccn2c(CN3CCCN(C=O)CC3)c(C(=O)N(C)CCc3ccccc3)nc12	inactive	–
CCc1nc2c(OCc3cc(Cl)cc(Cl)c3)cccn2c1N(C)C(=O)c1ccc(C)cc1	inconclusive: 18.4 µM [inhibitor, single point]	–
COc1ccc(OCC(=O)Nc2c3c(nn2C(C)(C)C)CSC3)cc1	inconclusive: 23.1 µM [inhibitor, single point]	–
CCC(CC)C(=O)N1CC(=O)Nc2ccc(Br)cc2C1c1ccccc1 (centres undefined)	inconclusive: 29.1 µM [inhibitor, single point]	–
COc1ccc(OCCSc2nc(C)c(Cc3ccccc3)c(=O)[nH]2)cc1	inconclusive: 18.4 µM [inhibitor, single point] and inconclusive: 29.1 µM [inhibitor, single point]	–
O=C(Nc1cc(F)ccc1F)C1CCCN(c2ncnc3c2nc2n3CCCCC2)C1 (centres undefined)	active: 13 µM	–
COc1ccc(N2CCN(C(=O)CN3C(=O)c4ccccc4S3(=O)=O)CC2)cc1	–	inconclusive: -30.5% [inhibitor]
CCN(CC)C(=S)SCc1csc(CC(=O)Nc2ccccc2C)n1	inconclusive: 18.4 µM [inhibitor, single point]	–
CNC(=O)/C(C#N)=C/c1cn(CC(=O)NCc2ccco2)c2ccccc12	inactive	–
OC(c1ccc(Cl)c(Cl)c1)c1ncc(-c2ccccc2Cl)[nH]1 (centres undefined)	inconclusive: 23.1 µM [inhibitor, single point]	–
C=CCNc1nnc(SC2CC(=O)N(c3ccc(OC)cc3)C2=O)s1 (centres undefined)	active: 4.61 µM	–
COc1cccc(NC(=O)C(Sc2nnnn2C)c2ccccc2)c1 (centres undefined)	inactive	–
CCCCCCCCCCOC(=O)Cn1c(COc2cccc(C)c2)[n+](C)c2ccccc21	active: 4.61 µM	–
CC1(C(=O)NS(=O)(=O)c2ccc3c(c2)CCO3)CCN1C(=O)C1(c2ccc(Cl)cc2)CC1 (centres undefined)	inactive	–
COc1cccc(NC(=O)CSc2nnc(-c3cc(C)n(-c4ccccc4)c3C)o2)c1	inconclusive: 17.8 µM [inhibitor, single point]	–
Cc1cc(OCC(=O)Nc2cc(-c3nc4ccccc4[nH]3)ccc2C)ccc1Cl	active: 7.31 µM	–
CCN(CC)C(=O)[C@H]1C[C@H](CC(=O)NCCN2CCOCC2)C(=O)N2CCc3c([nH]c4ccc(Cl)cc34)[C@]12C	inconclusive: 20.6 µM [inhibitor, partial curve]	–
CCc1sc(Nc2ccc(Cl)cc2)nc1-c1cc2cccc(OC)c2oc1=O	active: 20.6 µM	–
CN1CCN(C(=O)c2ccc3c(c2)N(Cc2c(F)cccc2Cl)C(=O)c2ccccc2S3)CC1	active: 23.1 µM	–
COC(=O)c1ccc(COc2ccc(/C=N/Nc3cccc(C(=O)O)c3)cc2)cc1	inactive	–
CCOC(=O)N1CCN(C2CC(=O)N(c3ccc(Oc4ccccc4)cc3)C2=O)CC1 (centres undefined)	inactive	–

SMILES	Potency	activity change, negative = growth inhibition
COc1ccc(/C(=N/Nc2ncnc3ccccc23)C(=O)O)cc1	inconclusive: 29.1 µM [inhibitor, single point]	–
Cc1ccc(OCC(=O)Nc2cc(Cl)ccc2-n2cncn2)c(C)c1	inconclusive: 29.1 µM [inhibitor, single point]	–
COc1ccc(C(=O)C2CCCN(C(=O)c3csc(SC)n3)C2)cc1F (centres undefined)	inconclusive: 18.4 µM [inhibitor, single point]	–
COc1ccc(C2=NOC(Cn3nc(-c4ccccc4)cc3C(=O)NCc3ccccc3OC)C2)cc1 (centres undefined)	active: 10.3 µM	–
COc1ccc(/C=C2\SC(=S)N(CCCC(=O)N3CCOCC3)C2=O)cc1	inconclusive: 29.1 µM [inhibitor, single point]	–
CC(C)(C)OC(=O)N1CCC[C@@H]1C(=O)N1CCC[C@@H]1C(=O)NCc1ccccc1Cl	inactive	–
CCCCC(c1nnnn1Cc1ccco1)N1CCN(c2nc3ccccc3s2)CC1 (centres undefined)	inconclusive: 29.1 µM [inhibitor, single point]	–
COc1ccccc1CNC(=O)COc1cc(=O)n(C)c2ccccc12	inconclusive: 20.6 µM [inhibitor, single point]	–
O=S(=O)(c1cccc(Cn2nnc(-c3ccc(F)cc3)n2)c1)N1CCOCC1	active: 20.6 µM	–
Cc1ccc2c(n1)sc1c(-c3ccc(Br)cc3)c(C#N)c(N)nc12	active: 18.4 µM	–
Cc1ccccc1C(=O)Nc1nnc(SCc2cc(=O)n3ccccc3n2)s1	inactive	–
C[C@H](/C=C/[C@H](C)C(C)(C)O)[C@H]1CC[C@H]2/C(=C/C=C3C[C@@H](O)C[C@H](O)C3)CCC[C@]12C	inactive	–
Nc1cc2sc(-c3ccc(C(=O)O)cc3)nc2cc1Cl	inconclusive: 14.6 µM [inhibitor, partial curve]	–
N#C/C(=C/c1ccc(C(=O)O)cc1)C(=O)Nc1ccccc1	inactive	–
O=C(CN1CCOCC1)Nc1ccc(S(=O)(=O)N2CCCCCC2)cc1	inactive	–
FC(F)(F)c1nc(-c2cccs2)ncc1-c1nnnn1-c1ccc(Cl)cc1	active: 2.91 µM	–
CC(C)(C)c1ccc(C(=O)NCC(c2cccs2)S(=O)(=O)c2ccc(F)cc2)cc1 (centres undefined)	active: 20.6 µM	–
Cc1ccc(C(=O)N/C(=C\c2cn(S(=O)(=O)N(C)C)c3ccccc23)C(=O)NCCCN2CCOCC2)cc1	inconclusive: 29.1 µM [inhibitor, single point]	–
CCc1cc2c(=O)oc(-c3ccccc3F)nc2s1	inactive	–
CC(=O)c1cccc(S(=O)(=O)N2CCN(c3ccccc3F)CC2)c1	inconclusive: 23.1 µM [inhibitor, single point] and inconclusive: 18.4 µM [inhibitor, partial curve]	–
Cc1cc(N2CCN(c3cccc(C(F)(F)F)c3)CC2)n2ncnc2n1	active: 23.1 µM	–
CC(C)CCCN1C(Nc2ccccc2)=NC[C@@H]1CC(C)C	active: 18.4 µM	–
COc1ccc(NC(=O)C2CCN(c3cc(C)nc(-c4ccccc4)n3)CC2)cc1	inconclusive: 20.6 µM [inhibitor, partial curve]	–
